Measured values from PubChem BioAssay AID894 (National Center for Advancing Translational Sciences (NCATS), 2007).
About 6,500 (4.3%) of roughly 150,000 compounds were called active. The shares of active, inactive and inconclusive entries below differ from those in the screen. Calls follow the shape of the dose curve; as a rule, active = well fitted inhibition curve with a large enough effect (not every such curve was filed as active); inconclusive = small, poorly fitted or top-dose-only effect, or another doubt; inactive = no such curve, though single readings can be large or run the other way. No potency is given beside an inconclusive call; the fits are too rough.

These compounds were tested against 15-hydroxyprostaglandin dehydrogenase [NAD(+)] (Homo sapiens) (UniProt P15428) (assay: qHTS Assay for Inhibitors of HPGD (15-Hydroxyprostaglandin Dehydrogenase)). Details: purified HPGD, NADH fluorescence kinetic, PGE2 substrate; activity change, negative = inhibition: hits give low values.
Summary of the method: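 20 nM HPGD preincubated 15 min at room temperature with compound in 50 mM Tris-HCl pH 8, 0.01% Tween 20. Started with 1 mM NAD+ and 30 uM prostaglandin E2; NADH fluorescence (360/450 nm) read 5 times over 30-s intervals, last minus first.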
% is scaled to controls: 0 for no effect and ±100 for the full control effect; potency is read from the fitted curve at half-maximal effect; tags tell the direction and shape of the fitted curve.

Sequence of UniProt P15428 (P15428 whole entry, looked up): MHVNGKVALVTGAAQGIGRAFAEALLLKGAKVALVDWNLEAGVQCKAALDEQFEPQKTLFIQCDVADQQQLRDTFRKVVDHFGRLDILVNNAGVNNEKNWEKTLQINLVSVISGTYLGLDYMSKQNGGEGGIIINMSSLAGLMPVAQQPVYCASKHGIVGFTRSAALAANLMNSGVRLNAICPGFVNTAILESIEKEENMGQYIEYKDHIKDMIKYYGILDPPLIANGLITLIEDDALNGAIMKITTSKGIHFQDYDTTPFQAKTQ

SMILES | Potency | activity change, negative = inhibition
Cc1cccc(S(=O)(=O)c2c(N)n(Cc3ccco3)c3nc4ccccc4nc23)c1 | inconclusive [inhibitor, partial curve] | –
Cn1c(=O)c2c(-c3ccccc3)n(Cc3ccccn3)cc2n(C)c1=O | – | inactive: -9.57%
CCc1ccccc1N1CSC2=C(C#N)C(c3cc(OC)c(OC)cc3OC)CC(=O)N2C1 (centres undefined) | active: 7.94 µM | –
Cc1cc(SCC(=O)N/N=C/c2ccc(O)c(O)c2)c(C)cc1Br | active: 2.82 µM | –
CCCCNC(=O)/C(C#N)=C/c1ccc2c(c1)OCCO2 | inconclusive [inhibitor, partial curve] | –
C=C(C)C1CCC(C)=C1COC(=O)Nc1ccccc1 (centres undefined) | inconclusive [inhibitor, partial curve] | –
CCOC(=O)C(NC(=O)c1ccccc1)(N1CCCC1=O)C(F)(F)F (centres undefined) | – | inactive: -14.1%
COc1ccc(-c2nc(C#N)c(N3CCCCCC3)o2)cc1OC | inconclusive [inhibitor, partial curve] | –
C=CCOc1c(CNc2cccc(C(=O)O)c2)cccc1OCC | inconclusive [inhibitor, partial curve] | –
Cc1cc(=O)[nH]c(SCC(=O)Nc2nc(-c3ccccc3)c(-c3ccccc3)o2)n1 | inconclusive [inhibitor, partial curve] | –
O=c1nc2c(O)cccn2c2c1c(=O)[nH]c1ccccc12 | inconclusive [inhibitor, partial curve] | –
COc1ccccc1-c1ccc(NC2CCCC2)nn1 | active: 6.31 µM | –
Cn1c(SCC(=O)NCc2cccs2)nnc1-c1cccs1 | – | inactive: -5.28%
Nc1nc2ccc(-c3nc4ccccc4o3)cc2s1 | inconclusive [inhibitor, partial curve] | –
CN(C)c1ccc(C(=O)Nc2nnc(-c3ccc(Cl)cc3)o2)cc1 | inconclusive [inhibitor, partial curve] | –
O=C1OC(c2ccccc2)=C/C1=C/N1CCOCC1 | – | inactive: -18.9%
C/C(N)=C(/C#N)C(=O)COC(=O)c1cc(-c2ccc(C)cc2)nc2ccccc12 | inconclusive [inhibitor, partial curve] | –
Cc1cccc(NC(=O)Cc2ccc(F)cc2)c1 | inconclusive [inhibitor, partial curve] | –
C=C(C)COc1ccc2c(CC)cc(=O)oc2c1C | inconclusive [inhibitor, partial curve] | –
Cc1c(C(=O)C(=O)N2CCCc3ccccc32)c2ccccc2n1C | – | inactive: -14.1%
COc1ccc(NCc2nnc(SCC(=O)Nc3nc(-c4ccccc4)cs3)n2-c2ccccc2)cc1 | inconclusive [inhibitor, single point] | –
CO/N=C(\C(=O)NC1C(=O)N2C(C(=O)OCOC(=O)C(C)(C)C)=C(/C=C\c3scnc3C)CSC12)c1csc(N)n1 (centres undefined) | inconclusive [inhibitor, single point] | –

SMILES | Potency | activity change, negative = inhibition
O=C(O)c1ccc(-c2nc(-c3ccccc3)c(-c3ccccc3)[nH]2)cc1 | inconclusive [inhibitor, partial curve] | –
COc1ccc(C2CC(=O)c3cnc(N)nc3C2)c(OC)c1 (centres undefined) | inconclusive [inhibitor, partial curve] | –
Cc1ccc(/C=C/c2ccc(=O)n(Cc3ccc(Cl)cc3Cl)n2)cc1 | inconclusive [inhibitor, partial curve] | –
Cc1cc(=O)oc2ccc(OC(C)C(=O)O)cc12 (centres undefined) | inconclusive [inhibitor, partial curve] | –
c1ccc(CCNc2c3c(nc4ncnn24)CCC3)cc1 | active: 17.8 µM | –
CC(C)NC[C@H](O)c1ccc(O)c(O)c1 | inconclusive [inhibitor, single point] | –
COc1ccc(-c2nc3c(c4nnc(SC(C)C(=O)Nc5ccc(C)cc5)n24)COC(C)(C)C3)cc1 (centres undefined) | inconclusive [inhibitor, partial curve] | –
COc1ccc(OCc2nnc(SCC(=O)NNC(=O)c3ccc(C)cc3)n2C)cc1 | – | inactive: 0.188%
Cc1ccc2ncc(NC(=O)c3ccc(F)cc3)c(=O)n2c1 | inconclusive [inhibitor, partial curve] | –
CCN=C1S/C(=C\c2cc(Br)ccc2OCC(=O)OCC)C(=O)N1CC | – | inactive: 51.2%
O=C(Nc1c(Cl)cc(Cl)cc1-c1nc2ccccc2s1)c1ccc(Br)o1 | inconclusive [inhibitor, single point] | –
CCc1ccc(/C=N/NC(=O)c2cc(-c3ccccc3OC)nc3ccccc23)s1 | inconclusive [inhibitor, partial curve] | –
CC(NC(=O)COC(=O)Cc1ccsc1)C1CC2CCC1C2 (centres undefined) | active: 28.2 µM | –
CC(=O)Nc1ccc(S(=O)(=O)N[C@H](C(=O)O)C(C)C)cc1 | – | inactive: 1.62%
CC1CCCCC1NC(=O)COC(=O)c1ccccc1NC(=O)c1ccco1 (centres undefined) | inconclusive [inhibitor, single point] | –
COc1ccc(NC(=O)Cc2nn(C)c(=O)c3ccccc23)c2ncccc12 | inconclusive [inhibitor, partial curve] | –
C=CCn1cnc2c(NCc3ccccc3)ncnc21 | inconclusive [inhibitor, single point] | –
Cc1c(CC(C)C)nc(N)c(C#N)c1-c1ccccc1 | inconclusive [inhibitor, partial curve] | –
COc1cc(CC(=O)OCC(=O)Nc2cccc([N+](=O)[O-])c2)cc(OC)c1OC | – | inactive: -6.23%
Cc1cc(NCCO)c2cc(O)ccc2n1 | inconclusive [inhibitor, partial curve] | –
CCCCN1C(=O)c2ccc(C(=O)Nc3ccc(S(=O)(=O)N(C)C)cc3)cc2C1=O | – | inactive: -11.6%
COc1nc2ccc(C)cc2cc1-c1noc(-c2ccccc2)n1 | inconclusive [inhibitor, partial curve] | –
